Measured values: patent US20100075953A1, “SUBSTITUTED PIPERAZINES, (1,4) DIAZEPINES, AND 2,5-DIAZABICYCLO (2.2.1) HEPTANES AS HISTAMINE H1 AND/OR H3 ANTAGONISTS OR HISTAMINE H3 REVERSE ANTAGONISTS” (Glaxo Group Limited, priority 2002, published 2010)
Some entries share one result that the patent states for a list of compounds. At least one compound was matched to its structure with a doubt left.

Biological target: histamine H3 receptor (Homo sapiens, UniProt Q9Y5N1)
Assay: Histamine H3 functional antagonist assay
Details: membranes of CHO K1 cells expressing human H3, [35S]GTPgammaS SPA, histamine 0.3 μM

Chain of histamine H3 receptor (Q9Y5N1 whole entry): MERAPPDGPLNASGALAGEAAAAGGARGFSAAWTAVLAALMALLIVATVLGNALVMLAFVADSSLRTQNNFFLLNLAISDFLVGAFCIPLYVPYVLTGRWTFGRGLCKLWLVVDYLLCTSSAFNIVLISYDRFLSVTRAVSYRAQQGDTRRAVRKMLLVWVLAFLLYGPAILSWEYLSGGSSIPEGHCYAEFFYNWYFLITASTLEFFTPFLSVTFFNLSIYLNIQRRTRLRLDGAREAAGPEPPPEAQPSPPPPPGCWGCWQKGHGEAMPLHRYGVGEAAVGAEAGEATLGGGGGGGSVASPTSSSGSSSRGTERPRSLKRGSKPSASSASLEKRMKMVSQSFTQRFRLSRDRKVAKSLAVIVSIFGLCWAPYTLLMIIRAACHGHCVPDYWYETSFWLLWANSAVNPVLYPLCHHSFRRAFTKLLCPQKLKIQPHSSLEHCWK

C[C@@H]1CN(C(=O)c2ccc(C#N)cc2)CCN1c1ccc(OCCCN2CCCCC2)cc1 [Example E325, 4-{[(3R)-3-Methyl-4-(4-{[3-(1-piperidinyl)propyl]oxy}phenyl)-1-piperazinyl]carbonyl}benzonitrile]
antagonism in the histamine H3 functional antagonist assay (pKb): > 8.4 pKb | antagonism in the histamine H3 functional antagonist assay (pKb) (listed as Example 325): > 6.5 pKb

CS(=O)(=O)N1CCN(c2cccc(OCCCN3CCCCC3)c2)CC1 [Example E43, 1-Methanesulphonyl-4-[3-(3-piperidin-1-yl-propoxy)-phenyl]-piperazine]
antagonism in the histamine H3 functional antagonist assay (pKb): > 6.5 pKb

O=S(=O)(c1ccc(Br)cc1)N1CCCN(Cc2ccc(OCCCN3CCCCC3)cc2)CC1 [Example E28, 1-(4-Bromo-benzenesulfonyl)-4-[4-(3-piperidin-1-yl-propoxy)-benzyl]-[1,4]diazepane]
antagonism in the histamine H3 functional antagonist assay (pKb): > 6.5 pKb

Cn1cc(C(=O)N2CCN(c3ccc(OCCCN4CCCCC4)cc3)CC2)nn1 [Example E397, 1-[(1-Methyl-1H-1,2,3-triazol-4-yl)carbonyl]-4-(4-{[3-(1-piperidinyl)propyl]oxy}phenyl)piperazine]
antagonism in the histamine H3 functional antagonist assay (pKb): > 8.4 pKb | antagonism in the histamine H3 functional antagonist assay (pKb) (listed as Example 397): > 6.5 pKb

N#Cc1cc(F)c(C(=O)N2CCN(c3ccc(OCCCN4CCCCC4)cc3)CC2)c(F)c1 [Example E423, 3,5-Difluoro-4-{[4-(4-{[3-(1-piperidinyl)propyl]oxy}phenyl)-1-piperazinyl]carbonyl}benzonitrile]
antagonism in the histamine H3 functional antagonist assay (pKb): > 8.4 pKb | antagonism in the histamine H3 functional antagonist assay (pKb) (listed as Example 423): > 6.5 pKb

O=C(N1CCN(c2ccc(OCCCN3CCCCC3)cc2)CC1)N1CCS(=O)(=O)CC1 [Example E274, 4-{[4-(4-{[3-(1-Piperidinyl)propyl]oxy}phenyl)-1-piperazinyl]carbonyl}thiomorpholine 1,1-dioxide]
antagonism in the histamine H3 functional antagonist assay (pKb): > 6.5 pKb

CN(C)C(=O)c1ccc(C(=O)N2CCN(c3ccc(OCCCN4CCCCC4)cc3)CC2)cc1 [Example E440, N,N-Dimethyl-4-{[4-(4-{[3-(1-piperidinyl)propyl]oxy}phenyl)-1-piperazinyl]carbonyl}benzamide]
antagonism in the histamine H3 functional antagonist assay (pKb): > 8.4 pKb | antagonism in the histamine H3 functional antagonist assay (pKb) (listed as Example 440): > 6.5 pKb

COC(=O)c1cccc(C(=O)N2CCN(c3ccc(OCCCN4CCCCC4)cc3)CC2)c1 [Example E355, Methyl 3-{[4-(4-{[3-(1-piperidinyl)propyl]oxy}phenyl)-1-piperazinyl]carbonyl}benzoate]
antagonism in the histamine H3 functional antagonist assay (pKb): > 8.4 pKb | antagonism in the histamine H3 functional antagonist assay (pKb) (listed as Example 355): > 6.5 pKb

O=S(=O)(c1ccccc1)N1CCN(c2cccc(OCCCN3CCCCC3)c2)CC1 [Example E44, 1-Benzenesulphonyl-4-[3-(3-piperidin-1-yl-propoxy)-phenyl]-piperazine]
antagonism in the histamine H3 functional antagonist assay (pKb): > 6.5 pKb

C[C@H]1CN(c2ccc(OCCCN3CCCCC3)cc2)CCN1C(=O)c1ccc(C(=O)N2CCCC2)cc1 [Example E319, (2S)-2-Methyl-4-(4-{[3-(1-piperidinyl)propyl]oxy}phenyl)-1-{[4-(1-pyrrolidinylcarbonyl)phenyl]carbonyl}piperazine]
antagonism in the histamine H3 functional antagonist assay (pKb): > 8.4 pKb | antagonism in the histamine H3 functional antagonist assay (pKb) (listed as Example 319): > 6.5 pKb

Cc1cc(C(=O)N2CCN(c3ccc(OCCCN4CCCCC4)cc3)CC2)cc(Cl)n1 [Example E396, 1-[(2-Chloro-6-methyl-4-pyridinyl)carbonyl]-4-(4-{[3-(1-piperidinyl)propyl]oxy}phenyl)piperazine]
antagonism in the histamine H3 functional antagonist assay (pKb): > 8.4 pKb | antagonism in the histamine H3 functional antagonist assay (pKb) (listed as Example 396): > 6.5 pKb

O=C(Cc1ccsc1)N1CCN(c2ccc(OCCCN3CCCCC3)cc2)CC1 [Example E406, 1-(4-{[3-(1-Piperidinyl)propyl]oxy}phenyl)-4-(3-thienylacetyl)piperazine]
antagonism in the histamine H3 functional antagonist assay (pKb): > 6.5 pKb

O=C(c1cccs1)N1CCCN(c2ccc(OCCCN3CCCCC3)cc2)CC1 [Example E453, 1-{4-[4-(3-Piperidin-1-yl-propoxy)-phenyl]-[1,4]diazepan-1-yl}-1-thiopheny-2-yl-methanone]
antagonism in the histamine H3 functional antagonist assay (pKb): > 8.4 pKb | antagonism in the histamine H3 functional antagonist assay (pKb) (listed as Example 453): > 6.5 pKb

O=C(c1ccc2nonc2c1)N1CCN(c2ccc(OCCCN3CCCCC3)cc2)CC1 [Example E405, 5-{[4-(4-{[3-(1-Piperidinyl)propyl]oxy}phenyl)-1-piperazinyl]carbonyl}-2,1,3-benzoxadiazole]
antagonism in the histamine H3 functional antagonist assay (pKb): > 8.4 pKb | antagonism in the histamine H3 functional antagonist assay (pKb) (listed as Example 405): > 6.5 pKb

CC(C)N1CCC(COc2ccc(N3CCN(C(=O)c4ccccc4)CC3)cc2)CC1 [Example E295, 1-[4-({[1-(1-Methylethyl)-4-piperidinyl]methyl}oxy)phenyl]-4-(phenylcarbonyl)piperazine]
antagonism in the histamine H3 functional antagonist assay (pKb): > 8.4 pKb | antagonism in the histamine H3 functional antagonist assay (pKb) (listed as Example 295): > 6.5 pKb

O=S(=O)(c1ccc(F)cc1)N1CCCN(Cc2ccc(OCCCN3CCCCC3)cc2)CC1 [Example E27, 1-(4-Fluoro-benzenesulfonyl)-4-[4-(3-piperidin-1-yl-propoxy)-benzyl]-[1,4]diazepane]
antagonism in the histamine H3 functional antagonist assay (pKb): > 6.5 pKb

C[C@@H]1CN(C(=O)c2ccc(F)cc2)CCN1c1ccc(OCCCN2CCCCC2)cc1 [Example E328, (2R)-4-[(4-Fluorophenyl)carbonyl]-2-methyl-1-(4-{[3-(1-piperidinyl)propyl]oxy}phenyl)piperazine]
antagonism in the histamine H3 functional antagonist assay (pKb): > 8.4 pKb | antagonism in the histamine H3 functional antagonist assay (pKb) (listed as Example 328): > 6.5 pKb

CC(C)CN1CCC(Oc2ccc(N3CCN(C(=O)c4ccc(F)cc4)CC3)cc2)CC1 [Example E257, 1-[(4-Fluorophenyl)carbonyl]-4-(4-{[1-(2-methylpropyl)-4-piperidinyl]oxy}phenyl)piperazine]
antagonism in the histamine H3 functional antagonist assay (pKb): > 6.5 pKb

O=C(N1CCOCC1)N1CCN(c2ccc(OCCCN3CCCCC3)cc2F)CC1 [Example E314, 4-{[4-(2-Fluoro-4-{[3-(1-piperidinyl)propyl]oxy}phenyl)-1-piperazinyl]carbonyl}morpholine]
antagonism in the histamine H3 functional antagonist assay (pKb): > 8.4 pKb | antagonism in the histamine H3 functional antagonist assay (pKb) (listed as Example 314): > 6.5 pKb

CC(=O)c1ccc(C(=O)N2CCN(c3ccc(OCCCN4CCCCC4)cc3)C[C@@H]2C)cc1 [Example E324, 1-(4-{[(2S)-2-Methyl-4-(4-{[3-(1-piperidinyl)propyl]oxy}phenyl)-1-piperazinyl]carbonyl}phenyl)ethanone]
antagonism in the histamine H3 functional antagonist assay (pKb): > 8.4 pKb | antagonism in the histamine H3 functional antagonist assay (pKb) (listed as Example 324): > 6.5 pKb

COCC(=O)N1CCN(c2ccc(OCCCN3CCCCC3)cc2)CC1 [Example E427, 1-[(Methyloxy)acetyl]-4-(4-{[3-(1-piperidinyl)propyl]oxy}phenyl)piperazine]
antagonism in the histamine H3 functional antagonist assay (pKb): > 6.5 pKb

O=C(c1ccccc1)N1CCN(c2ccc(OC[C@H]3CCCN(CC4CC4)C3)cc2)CC1 [Example E298, 1-[4-({[(3S)-1-(Cyclopropylmethyl)-3-piperidinyl]methyl}oxy)phenyl]-4-(phenylcarbonyl)piperazine]
antagonism in the histamine H3 functional antagonist assay (pKb): > 6.5 pKb

O=C(c1ccc(C(=O)N2CCN(c3ccc(OCCCN4CCCCC4)cc3)CC2)cc1)N1CCOCC1 [Example E436, 4-[(4-{[4-(4-{[3-(1-Piperidinyl)propyl]oxy}phenyl)-1-piperazinyl]carbonyl}phenyl)carbonyl]morpholine]
antagonism in the histamine H3 functional antagonist assay (pKb): > 8.4 pKb | antagonism in the histamine H3 functional antagonist assay (pKb) (listed as Example 436): > 6.5 pKb

O=C(c1ccc(Cl)cc1Cl)N1CCN(c2ccc(OCCCN3CCCCC3)cc2)CC1 [Example E364, 1-[(2,4-Dichlorophenyl)carbonyl]-4-(4-{[3-(1-piperidinyl)propyl]oxy}phenyl)piperazine]
antagonism in the histamine H3 functional antagonist assay (pKb): > 6.5 pKb

O=S(=O)(c1ccc(Cl)c(Cl)c1)N1CCN(c2ccc(OCCCN3CCCCC3)cc2)CC1 [Example E42, 1-(3,4-Dichlorobenzenesulphonyl)-4-[4-(3-piperidin-1-yl-propoxy)-phenyl]-piperazine]
antagonism in the histamine H3 functional antagonist assay (pKb): > 8.4 pKb | antagonism in the histamine H3 functional antagonist assay (pKb) (listed as Example E42): > 6.5 pKb

CC(C)N1CCC(Oc2ccc(N3CCN(C(=O)c4ccncc4)CC3)cc2)CC1 [Example E265, 1-(4-{[1-(1-Methylethyl)-4-piperidinyl]oxy}phenyl)-4-(4-pyridinylcarbonyl)piperazine]
antagonism in the histamine H3 functional antagonist assay (pKb): > 8.4 pKb | antagonism in the histamine H3 functional antagonist assay (pKb) (listed as Example 265): > 6.5 pKb
